Experimental data published in the supplement of paper PMC11417369.
± gives the standard deviation of the averaged measurements. This is one part of the list.

system: PfAP2-LT AP2 domain (GST-tagged); experiment: gcPBM binding intensity (ln(normalized median fluorescence intensity)); higher = stronger DNA binding
How it was run: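 Binding intensity is the highest Masliner-normalised natural-log median intensity over replicate spots in either probe orientation. To obtain it, GST-tagged P. falciparum DNA-binding domains made in E. coli were incubated for 1 h on an Agilent 4 × 180k array of primer-extended double-stranded 36-bp intergenic genomic probes plus negative controls. Detection used Alexa488 anti-GST antibody with scanning at 488 nm.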

Row | Sequence | gcPBM binding intensity (ln)
1 | AATAGAACTATTACACGTACAGAACATGAATTAGTT [XGTACX_site7518] | 8.91 ± 0.45
2 | TTTTTTAATTAGTACAAACACACATATACAGACAAA [CACACA_site2564] | 8.84 ± 0.4
3 | TGTTATATATGTAATTGTACACTTATACAAAATTAT [XGTACX_site6350] | 8.59 ± 0.44
4 | TATTTAAGAGTATGAACACACATCATACACATATAA [CACACA_site3617] | 8.88 ± 0.38
5 | TTATTAATATATAAATGTACATATACAATACATAAA [XGTACX_site5571] | 8.63 ± 0.38
6 | TATGTTTGTGTATATATTTATTTTTATGTAATTATA [GTGCAC_negctrl_site219] | 8.82 ± 0.42
7 | CAAAATATAACATCATCACACACATATACTTTATAT [CACACA_site8292] | 9.38 ± 0.38
8 | ATTTAAAAATAAAGAACACACATATGTAAAATATAT [CACACA_site3754] | 8.98 ± 0.48
9 | TCGACAATTTTATAAAGTACTTATTAGAAATATGAA [XGTACX_site7133] | 8.31 ± 0.4
10 | CCATTTAAAACATTTTGTACTTATTTTACATTTCTG [XGTACX_site4270] | 8.87 ± 0.48
11 | GATTCATTTCATAATACACACAACAAATATTTCAAA [CACACA_site120] | 8.75 ± 0.41
12 | AGAAAAAAAAATTATACATGCATATACGTTTATTTT [TGCATGCA_site529] | 8.7 ± 0.52
13 | AAACAAATAAAATTTATTAAAAAGGTCATATTATTA [CACACA_negctrl_site85] | 8.46 ± 0.58
14 | ATATTTTATATTTCTTGTACATATATTTGTAGATAT [XGTACX_site1140] | 8.85 ± 0.45
15 | TTTCTTACAACAACAACAAAAAAAAATAAATAAAAT [GTGCAC_negctrl_site711] | 8.51 ± 0.49
16 | TATTATTTTTTTATTCTATTAAAAAGAAAAAAATGA [CACACA_negctrl_site407] | 7.88 ± 0.47
17 | AATTTATTTTTAAAAAGTACATACTTAAGAAAACGA [XGTACX_site3660] | 8.4 ± 0.4
18 | TATATATATATATAAACACACATAAATATAAATATA [CACACA_site1121] | 9.01 ± 0.32
19 | TCTTTTACAAAAGCTATAACATTCACCACATTATAA [GTGCAC_negctrl_site133] | 8.48 ± 0.47

Row | Sequence | gcPBM binding intensity (ln)
20 | ATATATATATTTTATGCATGTTCATTTTCTATATTT [TGCATGCA_site442] | 9.09 ± 0.42
21 | AAAAAAAAAATATACACACACATATATATATATATA [CACACA_site3404] | 9.885 ± 0.064
22 | ATAATATATACGTGTGTGCACATGACAAAAGCATAT | 9.66 ± 0.27
23 | GTTAATGTGGTTACTTGTACATATTAACGTCTTTTT [XGTACX_site2617] | 8.9 ± 0.46
24 | ATAAAAAAAAGACACACACACATATATATATATATA [CACACA_site3073] | 10.2 ± 0.18
25 | TCAACACACGTGGAATGTACTTTAGTATAAGAATTC [XGTACX_site7842] | 9.04 ± 0.49
26 | TAAATATATTTCATGACATGCAACTTGTTTTTTTGT [TGCATGCA_site456] | 8.94 ± 0.5
27 | CAAAGGGAAATTAACACACACATATTTATATTTATA [CACACA_site7202] | 9.2 ± 0.47
28 | ATGTATATGATTAAATGTACGTAAACAAATTTGTAA [XGTACX_site8174] | 8.88 ± 0.38
29 | ACCACATAAAACAAATGTACTTGAAATATATGCGTA [XGTACX_site5155] | 8.92 ± 0.4
30 | TGCAGTCTGGAGAAGAGTACATAGTATCTGGTAGCT [XGTACX_site2021] | 8.82 ± 0.49
31 | AAGAAAACTTAAAATAAAAGCATATTTTATCTTACA [TGCATGCA_negctrl_site366] | 8.32 ± 0.46
32 | ATATATATATATATATGTACACACATCAATCATATT [XGTACX_site4005] | 9.96 ± 0.33
33 | AGAGTACAAGTAAATACACACATATAGATGAAAATA [CACACA_site6635] | 9.33 ± 0.54
34 | TATTAATAAATTTATAAAACAGGTATATATATATAT [CACACA_negctrl_site615] | 9.12 ± 0.15
35 | AAAAAAAAAAGACACACACACAAAATAAACAAACAA [CACACA_site7308] | 10.1 ± 0.33
36 | TATTTCATTAATGTCACTTTGAAAGAAATGAAAAAA [CACACA_negctrl_site1803] | 8.34 ± 0.45
37 | TGCGTATATATATACACACACATATATATATTTTAA [CACACA_site1952] | 9.1 ± 0.3
38 | TGTTTTTAAAAAAAAAAAAAATCACACCGGCAGGTA [CACACA_negctrl_site1437] | 8.4 ± 0.45

Row | Sequence | gcPBM binding intensity (ln)
39 | TATTGACATATATTAGTGCAATAATGAAATCAAGTA | 8.78 ± 0.45
40 | CATATTATTCTTTTCACACACGCGTTAATAATAATC [CACACA_site3931] | 9.28 ± 0.3
41 | GAACATTTGAAATATGCACACATGTATAAACATACA [CACACA_site5463] | 9.04 ± 0.33
42 | ATACATCGTATATAAGTGCATATTAAGGTCTTAAGA [GTGCAC_site9560] | 8.99 ± 0.34
43 | TATATATGTATCAAGTGTACAGTTTTAAAAAAAAAA [XGTACX_site6011] | 8.64 ± 0.45
44 | ACACACAATACAAAAGTGCATATAATAATTAATCAT | 9.34 ± 0.46
45 | TTGTAATTATTAAACACACACAAAATATATATAATA [CACACA_site2523] | 9.13 ± 0.33
46 | CCATAAAAATATAATACACACATATATATTAACATA [CACACA_site4102] | 9.04 ± 0.42
47 | AGGTGAGCTCAGACTACACACACAAAGAAAAAAATA [CACACA_site8439] | 9.36 ± 0.47
48 | AAAAAAAAAAAAAACACACACATACAGACAAAAATG [CACACA_site83] | 9.7 ± 0.45
49 | CTAAATTATAGATCAGTGCAATTTAATATGAGTCCA | 8.55 ± 0.45
50 | TTATCGACCAATAAAGCATGCAAAAAAAAAAAAAAA [TGCATGCA_site788] | 8.73 ± 0.4
51 | CTACATAAAAAAATATGTACATATATATATATATAT [XGTACX_site667] | 9.58 ± 0.13
52 | CCCACAGACAAAAACACACACAAAGGTGTTCTTATA [CACACA_site4840] | 9.3 ± 0.45
53 | AAGAGAAAAAGAATGAAAGAAAAAAAAAAAAAATAT [CACACA_negctrl_site1527] | 8.65 ± 0.54
54 | TTTTTAAAGGTGATAAAACACACGATTTAGAAATGT [CACACA_site3160] | 8.72 ± 0.54
55 | GTGTTGAATTATGTGCTTTTTTCTTTCTACTCAGTA [XGTACX_negctrl_site464] | 8.98 ± 0.45
56 | TTTAATATAACTATTTGTACATAAAGAATATAAATA [XGTACX_site4594] | 8.34 ± 0.48
57 | TTTTTTTGCCATATTACACACACACGGGTAAACCCC [CACACA_site6874] | 9.52 ± 0.38
